Some of the results follow.
molecular target: T1, OsWOX13 (Oryza sativa, UniProt Q5QMM3 1-267); test: protein-binding microarray (RPBM); PBS, 2% BSA, 51.3 ng/ul salmon testes DNA, 50 uM zinc acetate, 200 nM TF, 25 C, 1 h; high values mean tight binding; settings: protein: recombinant; tags: N-terminal polyhistidine and DsRed monomer fusion (pET32a); label: CyDye5-dUTP incorporated in the synthesized complementary strand; 3' TTTTT single-stranded linker to array surface; dsDNA, one strand shown
T1 sequence: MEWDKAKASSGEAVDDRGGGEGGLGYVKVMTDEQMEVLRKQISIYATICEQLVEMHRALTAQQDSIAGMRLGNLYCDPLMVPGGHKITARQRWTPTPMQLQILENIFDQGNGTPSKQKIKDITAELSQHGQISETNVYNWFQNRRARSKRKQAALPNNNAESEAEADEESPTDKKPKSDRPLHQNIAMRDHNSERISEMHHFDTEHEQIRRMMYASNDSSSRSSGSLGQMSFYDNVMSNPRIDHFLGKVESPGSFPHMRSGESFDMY
How it was run: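 Per-feature fluorescence intensity (arbitrary units), read on an Axon 4000B scanner, is the binding signal. Transcription factors carrying an N-terminal polyhistidine tag and DsRed fusion were expressed in E. coli BL21-CodonPlus and purified on Ni–NTA. A custom Agilent array, made double-stranded by primer extension with Cy5-dUTP and blocked with 2% BSA, was incubated with 200 nM protein in PBS, 2% BSA, salmon testes DNA and 50 µM zinc acetate at 25 °C for 1 h and then washed.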

Row | Sequence | binding signal
1 | TAGCACGGATTTCAATAATTATGCACGTGTGAAGGAGAGACGGAGTCACCTAGTGCAG | 3930 fluorescence intensity (a.u.)
2 | TTGTTGGGTGGGGACGTGGGGTGGGGTTCATGGAGTGGTTCGGAGTCACCTAGTGCAG | 7370 fluorescence intensity (a.u.)
3 | CGCCATGATTTTCGTTCATCCATAGCTTCTGCAGCGCCGGCGGAGTCACCTAGTGCAG | 4730 fluorescence intensity (a.u.)
4 | GCTGTTAAATTGAGGGTCCTCCGGTGAACTTATTCCTAATCGGAGTCACCTAGTGCAG | 7550 fluorescence intensity (a.u.)
5 | GTATTAATTTGGCCACCATAAACCCGGCGTTGAGAGCGACCGGAGTCACCTAGTGCAG | 6070 fluorescence intensity (a.u.)
6 | ATTTACAAATAATATTATAAATTGAACCAAAATAATTACCCGGAGTCACCTAGTGCAG | 5270 fluorescence intensity (a.u.)
7 | CCGTGATTTCCTGCCGGGATCAGACCGGGGCTTCTCTTCCCGGAGTCACCTAGTGCAG | 8650 fluorescence intensity (a.u.)
8 | AATTGATAACTAGGAATTTCAAAATGCAGGAATTTTGTGACGGAGTCACCTAGTGCAG | 3260 fluorescence intensity (a.u.)
9 | CAACATAATTCTAAATTTTGCAATAACTTTACAAAACTACCGGAGTCACCTAGTGCAG | 4750 fluorescence intensity (a.u.)
10 | TTCGAAATTAGTAATTACCAAGTATTATTTTATTCTAAGACGGAGTCACCTAGTGCAG | 15600 fluorescence intensity (a.u.)
11 | AAACTAAATTTAGACAGGAGTTCAGGTGATGAGTCAATGGCGGAGTCACCTAGTGCAG | 36800 fluorescence intensity (a.u.)
12 | ACATTGACACCAATCTTGAACATAATAGCGCATTACAGTACGGAGTCACCTAGTGCAG | 7300 fluorescence intensity (a.u.)
13 | CTTTGGTTAATTGTCGTCTTCTTCTCTCTCTCTGCATCCACGGAGTCACCTAGTGCAG | 10200 fluorescence intensity (a.u.)
14 | ATAAATCAAAATTTAAACATGATAAGAGGTCATCAATAGACGGAGTCACCTAGTGCAG | 4780 fluorescence intensity (a.u.)
15 | CTATAATTTATTTTATTTTATTATTAGTATAAATTTAATACGGAGTCACCTAGTGCAG | 5450 fluorescence intensity (a.u.)
16 | TTCTAACTGCTCCTAATTGATTATGCAACTACACCATCTTCGGAGTCACCTAGTGCAG | 40500 fluorescence intensity (a.u.)
17 | CTGTTACTGTTGATTTAGCGCGTTTTGCCTGTATAAATTTCGGAGTCACCTAGTGCAG | 5630 fluorescence intensity (a.u.)
18 | AGATGATAGGTATCTTTGTGCTGTTATCAGCTGGAAGTTCCGGAGTCACCTAGTGCAG | 7000 fluorescence intensity (a.u.)
19 | CCTGTTGTTTAATTATTGTTATGGATAAACAAATGGGCTGCGGAGTCACCTAGTGCAG | 5570 fluorescence intensity (a.u.)
20 | TAGAAGATAGATTGATTGATTGATATATACTATCTCTATACGGAGTCACCTAGTGCAG | 52600 fluorescence intensity (a.u.)
21 | AATAAATTAAGTTCAGTTGTCAATTGAAAACAACAAAATTCGGAGTCACCTAGTGCAG | 5330 fluorescence intensity (a.u.)
22 | CAATTAATTAAGTACGTGGACGTACTGTCTTAATTGAACGCGGAGTCACCTAGTGCAG | 20800 fluorescence intensity (a.u.)
23 | ATGAATTGATTCACTCGCGAGATGACGTGGATGTTTCACCCGGAGTCACCTAGTGCAG | 19800 fluorescence intensity (a.u.)
